The structures appear in SMILES notation. Out of some 150,000 compounds screened, about 540 (0.36%) showed an effect of 50% or more. This is one part of the list.

The test deals with Plasmodium falciparum. The experiment in a line: Primary screen in NF54 nanoGlo assay, in single point, at 2uM, 72h; a lower Z score goes with more inhibition. Type of test: functional, Erythrocyte. The note with it: timepoint 72 hour.
With `Cc1ccccc1C(=O)N1CC(S(=O)(=O)C2CCCCC2)C1`, the “% Inhibition” value was -5% and the Z score worked out at 0.7.

For `Cc1ccc2c(c1)[C@@H](NC(=O)N1CCC3(CC1)CNC(=O)O3)CC(C)(C)O2`, the “% Inhibition” value is recorded as -9% and the Z score was 1.79.

Consider `Cc1cc(C(=O)N(C)[C@@H](C)c2cc3ccccc3[nH]2)cnc1C`, for which the “% Inhibition” value is given as -2% and the Z score was 0.25.

`O=C1Nc2ccc(-c3ccc(F)cc3F)cc2C(=O)N2C[C@H](O)C[C@@H]12`: the “% Inhibition” value is 6% and the Z score is listed as -1.01.

In the case of `O=C(Nc1ccc(-c2cccc(F)c2)c(F)c1)N1CCO[C@@H](CO)C1`, the “% Inhibition” value is -6% and the Z score came to 0.65.

In the case of `COC(=O)CCC(C)(C)NC(=O)c1csc(C)n1`, the “% Inhibition” value is recorded as -11% and the Z score is 1.13.

`CC(C)c1oncc1NC(=O)c1cc[nH]c(=O)c1`: the “% Inhibition” value is listed as 10% and the Z score is recorded as -1.91.

For the compound `O=C1CS(=O)(=O)N(Cc2ccccc2F)c2cc(Cl)ccc21`, the “% Inhibition” value was 2% and the Z score is -0.18.

For `CCN(CC(=O)Nc1ccc2c(c1)OCCO2)CC(=O)N(CC)C1=CCCCC1`, the “% Inhibition” value is given as -6% and the Z score stood at 0.7.

For the compound `O=C(NCC1CCCN(c2ccc3ccccc3n2)C1)C1CCCN1` (centres undefined), the “% Inhibition” value is on record as -14% and the Z score was 2.54.

As for `Cc1ccc(N(Cc2ccco2)S(=O)(=O)c2cnn(C)c2)cc1`, the “% Inhibition” value amounted to 0% and the Z score was -0.01.

Turning to `Cn1nnc(NS(=O)(=O)c2cccc(N)c2)n1`, the “% Inhibition” value is recorded as -6% and the Z score is 1.

`CCN(Cc1nc(-c2cccs2)no1)[C@H]1CCOC(C)(C)C1`: the “% Inhibition” value is -3% and the Z score is 0.51.

For the compound `CC(C)(C)OC(=O)NCc1ccccc1`, the “% Inhibition” value was -9% and the Z score was 1.1.

Turning to `NC(=O)C1CCN(C(=O)c2cnc3ccccc3n2)CC1`, the “% Inhibition” value was -4% and the Z score amounted to 0.77.

As to `O=C1C2C3CC4C(OC(C42)N1c1ccccc1)C3O` (centres undefined), the “% Inhibition” value was -12% and the Z score worked out at 1.13.

`C=CCN(C)C(=O)Nc1cc(C)ccc1S(C)(=O)=O`: the “% Inhibition” value is -12% and the Z score is 1.81.

With `Cc1cccc(NS(=O)(=O)c2cc3c(=O)n(C)nc(C)n3c2)c1C`, the “% Inhibition” value stood at 4% and the Z score is recorded as -0.66.

Consider `COCCc1nc(Cn2ccnc2)n(Cc2cccc(C)c2)n1`, for which the “% Inhibition” value is recorded as -6% and the Z score was determined as 1.04.

As for `Cc1ccc(-c2nccn3cc(C(=O)N4CCCCC4)nc23)cc1`, the “% Inhibition” value is reported as -2% and the Z score was 0.32.

In the case of `NC(=O)c1cncc(NCC[C@H]2CCCOC2)n1`, the “% Inhibition” value is listed as -19% and the Z score turned out to be 1.96.

Regarding `c1csc(CNc2nnc([C@@H]3Cc4ccccc4O3)o2)c1`, the “% Inhibition” value was -12% and the Z score is listed as 1.5.

`Cc1ccn(CC(=O)Nc2c(C)nn(C)c2C)c(=O)c1C#N`: the “% Inhibition” value is reported as -4% and the Z score is 0.71.

As to `Cn1c(C(=O)N(CC(=O)O)C2CC2)cc2cc(C(F)(F)F)ccc21`, the “% Inhibition” value is on record as -14% and the Z score is 2.69.

With `CN(CC(F)(F)F)C(=O)C1CCCC(C(=O)O)C1` (centres undefined), the “% Inhibition” value is -1% and the Z score was determined as 0.09.

With `O=C(c1nc[nH]n1)N1CCN(C[C@]2(O)CCCN(CCc3ccccc3)C2=O)CC1`, the “% Inhibition” value is on record as -6% and the Z score was determined as 1.12.

In the case of `Cc1nnnn1Cc1nnc(C(C)(C)C)o1`, the “% Inhibition” value is -18% and the Z score is 2.65.

Consider `Cc1cc2ncc(CCCNC(=O)CCc3c(F)cccc3Cl)cn2n1`, for which the “% Inhibition” value worked out at 6% and the Z score is -1.16.

`C[C@H](Oc1ccc(NC(=O)C2CCC=CCC2)cc1F)C(=O)O`: the “% Inhibition” value is -12% and the Z score was 1.27.

Turning to `Cc1cc(C(=O)NC[C@@H]2CCC[C@H]2O)cnn1`, the “% Inhibition” value was -11% and the Z score came to 1.51.

With `O=S(=O)(N[C@H]1CCOC[C@@H]1O)c1ccc2c(c1)OCCCO2`, the “% Inhibition” value was -10% and the Z score came to 2.03.

Take `CN(C)c1ccccc1NC(=O)c1ccncc1Cl`: the “% Inhibition” value is recorded as -9% and the Z score was determined as 1.22.

With `Cc1cnc([C@@H](C)CNC(=O)Nc2cc(C3CCC3)nn2C)s1`, the “% Inhibition” value was -6% and the Z score was 0.63.

Take `O=C(c1ccccc1-n1cncn1)N1CC[C@@]2(CCCN(CC3CC3)C2=O)C1`: the “% Inhibition” value is given as -4% and the Z score amounted to 0.78.

As to `Cc1noc(C2(NC(=O)c3cccc(N(C)C)c3)CCOCC2)n1`, the “% Inhibition” value is reported as -3% and the Z score is given as 0.4.

Regarding `CCOC(=O)C(C)(C)C(=O)Nc1cc(S(C)(=O)=O)ccc1Cl`, the “% Inhibition” value was -16% and the Z score was 2.73.

As to `O=S(=O)(CCCCC(F)(F)F)NCCNc1ccccc1`, the “% Inhibition” value is listed as -5% and the Z score is given as 0.63.

For `CCc1[nH]c2ccc(CNC(=O)CCc3c(C)nn(C)c3C)cc2c1C`, the “% Inhibition” value was -10% and the Z score came out at 1.27.

In the case of `Cc1oc(C2CCN(C(=O)c3ccc(C(C)C)cc3)CC2)nc1C(=O)N1CCOCC1`, the “% Inhibition” value is on record as -8% and the Z score was 1.24.

With `CCC(=O)N1CCC[C@@](NCCN2CCOCC2)(c2nnnn2C2CCCC2)C1`, the “% Inhibition” value is recorded as 11% and the Z score is listed as -1.89.

With `CC(CN1CCOCC1)C(C)OC(=O)c1ccc(O)cc1O` (centres undefined), the “% Inhibition” value is -13% and the Z score came to 1.77.

With `Cc1ccc(S(=O)(=O)NCC[C@H](O)C2CCOCC2)cc1`, the “% Inhibition” value is -11% and the Z score came out at 2.18.

One may read the % Inhibition as the change of the read-out against control, counted positive when it falls.

The values are drawn from ChEMBL document CHEMBL4888484, “Replenishing the malaria drug discovery pipeline: Screening and hit evaluation of the MMV Hit Generation Library 1 (HGL1) against asexual blood stage Plasmodium falciparum ,using a nano luciferase reporter read-out” (2022).
